Test results reported in the RNAGym collection of RNA variant scans (doi:10.1101/gad.245936.114).
This sample is rich in variants without activity.

B1: tRNA (parent)
chain: CUCUCGGUAGCCAAGUUGGUUUAAGGCGCAAGACUUUAAUUUAUCACUACGAAAUCUUGAGAUCGGGCGUUCGACUCGCCCCCGGGAGAUUUUUUCCUCGAGCAA

Variants of: B1
Experiment: nonsense suppression (GFP-seq) (ratio to wild type); higher = more function; SUP4oc tRNA, yeast GFP reporter sort-seq
Outline: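 Yeast were grown in raffinose/galactose medium with 80 mg/L adenine, each strain bearing a genome-integrated ochre-suppressor tRNA variant from a ~3% random-mutation library, a galactose-driven GFP ochre reporter, and RFP. After sorting into GFP/RFP bins, every bin was sequenced on an Illumina platform at phred ≥30. The GFPSEQ value, a measure of nonsense suppression, is the weighted bin median GFP/RFP relative to the unmutated parent tRNA, using each variant's estimated cell share per bin as the weight. Only variants with ≥100 reads and ≥30 cells were included.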

Q: With CUCUCGGUAGCCAAGUUGGUUUAAGGCGCACGACUUUAAUUUAUCACUACGAAAUCAUGAGAUCGGGCGUUCGACUCGCCCCCGGGAGAUUUUUUCCUCGAGCAA as the variant, how does the nonsense suppression read?
A: 0.219

Q: For CUCUCGGUAGCCAAGUUGGUUUAAGGCGCACGACUUUAAUUUAUCACUACGAAAUCAUGAGAUCGGGCGUUCCACUCGCCCCCGGGACAUUUUUUCCUCGAGCAA, which nonsense suppression is on record?
A: ≤ 0.026

Q: For CUCUCGGUAGCCAAGUUGGUUUAAGGCGCACGACUUUAAUUUAUCACUACGAAAUCCUGAGAUCGGGCGUUCGACUCGCCCCCGGGAGAUUUUUUCCUCGAGCAA, which nonsense suppression is on record?
A: ≤ 0.026

Q: For CUCUCGGUAGCCAAGUUGGUUUAAGGCGCACGACUUUAAUUUAUCACUACGAAAUCUAGAGAUCGGGCGUUCGACUCGCCCCCGGGAGAUUUUUUCCUCGAGCAA, which nonsense suppression is on record?
A: ≤ 0.026

Q: Which nonsense suppression does the source give for CUCUCGGUAGCCAAGUUGGUUUAAGGCGCACGACUUUAAUUUAUCACUACGAAAUCUUGAGAUCGGGCGCUUGACUCGCCCCCGGGAGAUUUUUUCCUCGAGCAA here?
A: ≤ 0.026

Q: Which nonsense suppression does the source give for CUCUCGGUAGCCAAGUUGGUUUAAGGCGCACGACUUUAAUUUAUCACUACGAAAUCUUGAGAUCGGGCGUGCGACUCGCCCCCGGGAGAUUUUUUCCUCGAGCAA here?
A: ≤ 0.026

Q: Which nonsense suppression does the source give for CUCUCGGUAGCCAAGUUGGUUUAAGGCGCACGACUUUAAUUUAUCACUACGAAAUCUUGAGAUCGGGCGUUCGACGCGCCCCCGGGAGAUUUUUUCCUCGAGCAA here?
A: ≤ 0.026

Q: For CUCUCGGUAGCCAAGUUGGUUUAAGGCGCAGGGCUUUAAUUUAUCACUACGAAAUCUUGAGAUCGGGCGUUCGACUCGCCCCCGGGAGAUUUUUUCCUCGAGCAA, which nonsense suppression is on record?
A: ≤ 0.026

Q: With CUCUCGGUAGCCAAGUUGGUUUAAGGCGCAGGACUUUAAUUUAUCACUACGAACUCUUGAGAUCGGGCGUUCGACUCGCCCCCGGGAGAUUUUUUCCUCGAGCAA as the variant, how does the nonsense suppression read?
A: 0.0977

Q: Which nonsense suppression does the source give for CUCUCGGUAGCCAAGUUGGUUUAAGGCGCAGGACUUUAAUUUAUCACUACGAAUUCUUGAGAUCGGGCGUUCGACUCGCCCCCGGGAGAUUUUUUCCUCGAGCAA here?
A: 0.627

Q: With CUCUCGGUAGCCAAGUUGGUUUAAGGCGCAGGACUUUAAUUUAUCACUACGAAAUCUUGCGAUCGGGCGUUCGACUCGCCCCCGGGAGAUUUUUUCCUCGAGCAA as the variant, how does the nonsense suppression read?
A: 0.177

Q: For CUCUCGGUAGCCAAGUUGGUUUAAGGCGCAGGACUUUAAUUUAUCACUACGAAAUCUUGGGAUCGGGCAUUCGACUCGCCCCCGGGAGAUUUUUUCCUCGAGCAA, which nonsense suppression is on record?
A: ≤ 0.026

Q: For CUCUCGGUAGCCAAGUUGGUUUAAGGCGCAGGACUUUAAUUUAUCACUACGAAAUCUUGAGCUCGGGCGUUCGACUCGCCCCCGGGAGAUUUUUUCCUCGAGCAA, which nonsense suppression is on record?
A: ≤ 0.026

Q: Which nonsense suppression does the source give for CUCUCGGUAGCCAAGUUGGUUUAAGGCGCAGGACUUUAAUUUAUCACUACGAAAUCUUGAGGACGGGCGUUCGACUCGCCCCCGGGAGAUUUUUUCCUCGAGCAA here?
A: ≤ 0.026

Q: For CUCUCGGUAGCCAAGUUGGUUUAAGGCGCAGGACUUUAAUUUAUCACUACGAAAUCUUGAGAUCGGGCGUUCGGCUCGCCCCCGGGAGAUUUUUUCCUCGAGCAA, which nonsense suppression is on record?
A: ≤ 0.026

Q: For CUCUCGGUAGCCAAGUUGGUUUAAGGCGCAGGACUUUAAUUUAUCACUACGAAAUCUUGAGAUCGGGCGUUCGUCUAGCCCCCGGGAGAUUUUUUCCUCGAGCAA, which nonsense suppression is on record?
A: ≤ 0.026

Q: For CUCUCGGUAGCCAAGUUGGUUUAAGGCGCAGGACUUUAAUUUAUCACUACGAAAUCUUGAGAUCGGGCGUUCGACUCGCCCCCGGGAGUUUUUUUCCUCGAGCAA, which nonsense suppression is on record?
A: ≤ 0.026

Q: Which nonsense suppression does the source give for CUCUCGGUAGCCAAGUUGGUUUAAGGCGCAGGAAUUUAAUUUAUCACUACGAAAUCUUGAGAUCGGGCGUUCGACUCGCCCCCGGGAGAUUUUUUCCUCGAGCAA here?
A: ≤ 0.026

Q: For CUCUCGGUAGCCAAGUUGGUUUAAGGCGCAGGAGUUUAAUUUAUCACUACGAACUCUUGAGAUCGGGCGUUCGACUCGCCCCCGGGAGAUUUUUUCCUCGAGCAA, which nonsense suppression is on record?
A: ≤ 0.026

Q: With CUCUCGGUAGCCAAGUUGGUUUAAGGCGCAGGAGUUUAAUUUAUCACUACGAAAUCUUGAGAUCGGGCCUUCGACUCGCCCCCGGGAGAUUUUUUCCUCGAGCAA as the variant, how does the nonsense suppression read?
A: ≤ 0.026

Q: Which nonsense suppression does the source give for CUCUCGGUAGCCAAGUUGGUUUAAGGCGCAGGAUUUUAAUUUAUCACUACGAAAUCUUGAGAUCGGGCGUUCGACUCGCCCCCGGGAGAUUUUUUCCUCGAGCAA here?
A: ≤ 0.026

Q: For CUCUCGGUAGCCAAGUUGGUUUAAGGCGCAGGAUUUUAAUUUAUCACUACGAACGCUUGAGAUCGGGCGUUCGACUCGCCCCCGGGAGAUUUUUUCCUCGAGCAA, which nonsense suppression is on record?
A: ≤ 0.026

Q: With CUCUCGGUAGCCAAGUUGGUUUAAGGCGCAGGAUUUUAAUUUAUCACUACGAAAUCUUGGGAUCGGGCGUUCGACUCGAGCCCGGGAGAUUUUUUCCUCGAGCAA as the variant, how does the nonsense suppression read?
A: ≤ 0.026

Q: Which nonsense suppression does the source give for CUCUCGGUAGCCAAGUUGGUUUAAGGCGCAGGAUUUUAAUUUAUCACUACGAAAUCUUGAGAUCGGGCGUUCGACUCGCCCUCGGGAGAUUUUUUCCUCGAGCAA here?
A: ≤ 0.026

Q: For CUCUCGGUAGCCAAGUUGGUUUAAGGCGCAGGAUUUUAAUUUAUCACUACGAAAUCUUGAGAUCGGGCUUUCGACUCGCCCCCGGGAGAUUUUUUCCUCGAGCAA, which nonsense suppression is on record?
A: ≤ 0.026

Q: For CUCUCGGUAGCCAAGUUGGUUUAAGGCGCAGGACUUUAAUUUAUCACUACGAAAUAUUGAGAUCGGGCGUUCGACUCGCCCCCGGGAGAUUUUUUCCUCGAGCAA, which nonsense suppression is on record?
A: ≤ 0.026

Q: For CUCUCGGUAGCCAAGUUGGUUUAAGGCGCAGGACUUUAAUUUAUCACUACGAAAUGUUGAGAUCGGGCGUUCGACUCGCCCCCGGGAAAUUUUUUCCUCGAGCAA, which nonsense suppression is on record?
A: ≤ 0.026
